# Experimental data from the supplement of paper PMC4996465.
# Key:
# KB3-1 [1] = assay: viability (% of DMSO control); higher = more viable cells
# Procedure: (§1)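 Eleven-dose screen of the NCATS MIPE 3 library on cells without co-treatment; CellTiter-Glo after 48 h, as % of DMSO wells.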
# Nalm-6 [2] = assay: as above
# Procedure: as §1
# KB3-1 [3] = assay: log AC50 of viability decrease (48 h) (log10 M); higher = less potent
# Procedure: (§2)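 Eleven-dose screen of the NCATS MIPE 3 library on cells without co-treatment; CellTiter-Glo after 48 h. AC50 from the curve fit; only inhibitory curves of the better fit classes are listed.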
# Nalm-6 [4] = assay: as above
# Procedure: as §2
Compound,viability (KB3-1 [1]; 0.00078 µM),viability (KB3-1 [1]; 0.00234 µM),viability (KB3-1 [1]; 0.00702 µM),viability (KB3-1 [1]; 0.0211 µM),viability (KB3-1 [1]; 0.0632 µM),viability (KB3-1 [1]; 0.19 µM),viability (KB3-1 [1]; 0.569 µM),viability (KB3-1 [1]; 1.71 µM),viability (KB3-1 [1]; 5.12 µM),viability (KB3-1 [1]; 15.4 µM),viability (KB3-1 [1]; 46.1 µM),"viability (Nalm-6 [2]; run: 1, 0.00078 µM)","viability (Nalm-6 [2]; run: 1, 0.00234 µM)","viability (Nalm-6 [2]; run: 1, 0.00702 µM)","viability (Nalm-6 [2]; run: 1, 0.0211 µM)","viability (Nalm-6 [2]; run: 1, 0.0632 µM)","viability (Nalm-6 [2]; run: 1, 0.19 µM)","viability (Nalm-6 [2]; run: 1, 0.569 µM)","viability (Nalm-6 [2]; run: 1, 1.71 µM)","viability (Nalm-6 [2]; run: 1, 5.12 µM)","viability (Nalm-6 [2]; run: 1, 15.4 µM)","viability (Nalm-6 [2]; run: 1, 46.1 µM)","viability (Nalm-6 [2]; run: 2, 0.00078 µM)","viability (Nalm-6 [2]; run: 2, 0.00234 µM)","viability (Nalm-6 [2]; run: 2, 0.00702 µM)","viability (Nalm-6 [2]; run: 2, 0.0211 µM)","viability (Nalm-6 [2]; run: 2, 0.0632 µM)","viability (Nalm-6 [2]; run: 2, 0.19 µM)","viability (Nalm-6 [2]; run: 2, 0.569 µM)","viability (Nalm-6 [2]; run: 2, 1.71 µM)","viability (Nalm-6 [2]; run: 2, 5.12 µM)","viability (Nalm-6 [2]; run: 2, 15.4 µM)","viability (Nalm-6 [2]; run: 2, 46.1 µM)",log AC50 of viability decrease (KB3-1 [3]),log AC50 of viability decrease (Nalm-6 [4]; run: 1),log AC50 of viability decrease (Nalm-6 [4]; run: 2)
CC[C@@]1(O)C(=O)OC\C2=C1\C=C3/N(CC4=CC5=C(C=CC(=C5CN(C)C)O)N=C34)C2=O [Topotecan hydrochloride],108%,101%,106%,106%,108%,102%,90.9%,76%,63.5%,46.6%,27.6%,100%,96.1%,79.3%,12.5%,9.13%,9.6%,8.5%,9.06%,8.33%,7%,9.95%,101%,102%,81.1%,28%,7.13%,7.9%,6.84%,7.04%,4.42%,3.41%,5.35%,-5.23,-7.98,-7.93
CCC(=O)N1CCN(CC1)C2=C(C=C(C=C2)N3C(=O)\C=C/C4=C3C5=CC(=CC=C5N=C4)C6=CN=C7C=CC=CC7=C6)C(F)(F)F [Torin-1],96.1%,104%,86.4%,74.9%,55.4%,47.2%,43.8%,45.3%,47.6%,45.8%,42.4%,100%,100%,89.4%,79.5%,73.5%,62.7%,67.8%,60.2%,54.9%,42.9%,5.19%,107%,113%,101%,97.6%,76.5%,70.7%,72.2%,60.8%,39.4%,27.1%,3.49%,-7.68,-5.23,-5.38
NC1=NC=C(C=C1)C2=CC=C3N=CC\4=C(N(C(=O)\C=C4)C5=CC(=CC=C5)C(F)(F)F)C3=C2 [Torin-2],69.8%,64.7%,50%,45%,45.8%,37.4%,28%,24.1%,23.7%,22.6%,6.79%,68.9%,59.9%,55.7%,45.9%,27.3%,17.9%,12.9%,10.9%,9.27%,8.18%,3.99%,83.3%,73.2%,62%,46.9%,29.3%,15.8%,9.9%,6.18%,6.13%,4.94%,2.36%,-7.28,-7.53,-7.73

# Counter-ions that a name gives are not always drawn. Viability of KB3-1 and Nalm-6 cells after 48 h of drug alone (CellTiter-Glo), 11 doses over about 4.5 log units. % of DMSO wells, lower = more cell loss; AC50 from the fitted curve, lower = more potent. No active / inactive call. Nalm-6 was screened in two runs. AC50 is listed only for well-fitted inhibitory curves. KB3-1 is a HeLa-derived carcinoma line, Nalm-6 a B-cell precursor leukaemia line.
